Where “and” joins values, the source holds several entries; their conditions need not be identical. Equal entries are not always repeated. Screen size: about 410,000 compounds; about 530 (0.13%) were called active. Inconclusive results, whose numbers are uncertain, are shown with a selection of clear calls. Calls follow the shape of the dose curve; as a rule, active = well fitted inhibition curve with a large enough effect; inconclusive = small, poorly fitted or top-dose-only effect, or another doubt; inactive = no such curve, though single readings can be large or run the other way. Potencies beside an inconclusive call are fits to weak or partial responses and may not hold up.
assay: qHTS of GLP-1 Receptor Inverse Agonists: Cytotox Screen; details: HEK293 cAMP-luciferase reporter cells, luminescence, 24 h; activity change, negative = inhibition: at 38.3 µM (top of the series) unless noted
Summary of the method: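 Quantitative HTS format, 1536 wells, 200 cells/uL seeded. Compounds: 23 nL, 24 h, 37 °C. Detection: luciferase reagent, luminescence at 12 min RT; decreased signal taken as cytotoxic.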
% is scaled to controls: 0 for no effect and ±100 for the full control effect; potency is read from the fitted curve at half-maximal effect.

SMILES | Potency | activity change, negative = inhibition
S=C(N/N=C/c1ccc2ncccc2c1)Nc1ccccc1 | inconclusive: 3.55 µM [inhibitor, full curve, poor fit] | –
COc1cc(CNc2ccc(N3CCCC3)cc2)cc(Cl)c1OC | inconclusive: 11.2 µM [inhibitor, single point] | –
COc1ccc(NC(=S)NCCCc2ccccc2)cc1 | inconclusive: 28.2 µM [inhibitor, single point] | –
COc1ccc(-n2ncc(C(=O)NCCN3CCOCC3)c2C2CCN(C(=O)OC(C)(C)C)CC2)cc1 | – | inactive: 14.7%
Cc1cc(CSc2ccccc2)ccc1NC(=O)COc1ccccc1 | – | inactive: -25.3%
Oc1ccc(CNc2ccccc2)c2cccnc12 | inconclusive: 2.24 µM [inhibitor, full curve, poor fit] | –
COc1cc(C(=O)c2ccc3c(c2)OCO3)cc(OC)c1OC | inconclusive: 2.24 µM [inhibitor, partial curve, poor fit] | –
N#C/C(=C\c1ccc(N2CCOCC2)o1)C(=O)NCCc1ccccc1 | – | inactive: 30.8%
NNc1nc2ccc(Cl)cc2s1 | inconclusive: 22.4 µM [inhibitor, single point] | –
CN(C)CCNC(=O)/C(=C/c1ccc(-c2cccc([N+](=O)[O-])c2)o1)NC(=O)c1ccccc1 | inconclusive: 25.1 µM [inhibitor, single point] | –
COc1cccc2sc(Nc3nc(-c4ccncc4)cs3)nc12 | inconclusive: 28.2 µM [inhibitor, single point] | –
O=C(CNC(=O)c1ccccc1)OCc1cc(=O)n2nc(C3CC3)sc2n1 | – | inactive: 1.38%
CCOC(=O)[C@@H]1[C@H]2COc3cc(OC)ccc3[C@H]2N2C(=O)N(c3ccc(C(F)(F)F)cc3)C(=O)[C@]12C | inconclusive: 10 µM [inhibitor, single point] | –
O=C(N/N=C/c1cn(-c2cccs2)nc1-c1ccccc1)c1ccc(O)cc1 | inconclusive: 28.2 µM [inhibitor, single point] | –
CCN(CC)CCOc1c(Br)ccc2c1sc1nc3n(c(=O)c12)CCC3 | inconclusive: 10 µM [inhibitor, partial curve, poor fit] | –
Cc1cccc(C)c1NC(=O)Cn1nnnc1N | – | inactive: 2.51%
OC(c1cc(-c2cccc(Cl)c2)nc2ccccc12)C1CCCCN1 (stereo not drawn) | active: 10 µM | –
CC(=O)Nc1c(C)nn(-c2ccccc2)c1N1CCC(C(=O)NCc2ccc(F)cc2)CC1 | – | inactive: 3.1%
CN(C)CCCN(C(=O)c1ccc(S(=O)(=O)N2CCc3ccccc32)cc1)c1nc2ccc(F)cc2s1 | inconclusive: 31.6 µM [inhibitor, partial curve, poor fit] | –
CN1CCN(C(=S)NC(=O)c2cccc([N+](=O)[O-])c2)CC1 | inconclusive: 10 µM [inhibitor, partial curve, poor fit] | –
COC(=O)/C=C/c1ccc(OC(=O)OC)c(OC(=O)OC)c1 | inconclusive: 7.94 µM [inhibitor, partial curve, poor fit] | –
Cc1ccc(C)c(NC(=O)Cc2nc(CNCC(C)C)cs2)c1 | inconclusive: 3.16 µM [inhibitor, full curve] | –
O=C(COc1ccc(Br)cc1Cl)NC(=S)N1CCc2ccccc21 | inconclusive: 11.2 µM [inhibitor, partial curve, poor fit] | –

SMILES | Potency | activity change, negative = inhibition
Cc1cccc(-n2c(C)cc(/C=C3\NC(=O)NC3=O)c2C)c1 | inconclusive: 31.6 µM [inhibitor, single point] | –
CC(=O)Nc1ccc(S(=O)(=O)NC2=C(N3CCN(Cc4ccccc4)CC3)C(=O)c3ccccc3C2=O)cc1 | inconclusive: 11.2 µM [inhibitor, partial curve] and inconclusive: 10 µM [inhibitor, partial curve, poor fit] | –
COc1ccc(S(=O)(=O)N2CCCC(C(=O)Nc3cccc(C(C)=O)c3)C2)cc1 (stereo not drawn) | – | inactive: -6.75%
COc1ccc2c(-c3ccccc3)cc(=S)[nH]c2c1 | – | inactive: -1.01%
C=C(C)COc1ccc(-c2n[nH]c(C)c2-c2ccccc2)c(O)c1 | inconclusive: 28.2 µM [inhibitor, single point] | –
Cc1ccc2cccc(OC(=O)/C=C\c3ccccc3)c2n1 | inconclusive: 28.2 µM [inhibitor, single point] | –
Cc1ccc(-c2n[nH]c(=S)n2/N=C/c2cccs2)cc1 | inconclusive: 28.2 µM [inhibitor, single point] | –
S=C(c1ccc(Br)cc1)N1CCCC1 | – | inactive: 10.8%
Cc1cc(C)cc(N/C(N)=N/c2nc(C)cc(C)n2)c1 | inconclusive: 7.08 µM [inhibitor, partial curve] | –
COc1cccc2c1C1COC3C4CC(C(=O)O)C(C(C2)N13)N4C (stereo not drawn) | inconclusive: 1.78 µM [inhibitor, partial curve, poor fit] | –
COc1ccc(Cn2c(SCc3ccc(C)cc3)nc3cc(OC)c(OC)cc3c2=N)cc1Cl | inconclusive: 10 µM [inhibitor, partial curve] | –
CC(C)CCSc1nc(N)c(C#N)cc1C#N | – | inactive: 19.5%
CCOc1ccc(/C=N/NC(=S)NC2CC3CC2C2C=CCC32)cc1 (stereo not drawn) | inconclusive: 28.2 µM [inhibitor, single point] | –
CCCS(=O)(=O)c1nnnn1-c1cccc(OC)c1 | inconclusive: 11.2 µM [inhibitor, partial curve, poor fit] | –
Cn1cnnc1Sc1cc(N2CCN(S(=O)(=O)c3ccc(Cl)c(Cl)c3)CC2)ccc1[N+](=O)[O-] | inconclusive: 31.6 µM [inhibitor, single point] | –
CCCCC(=O)N(C)c1c(CC)nc2c(OCC=C(C)C)cccn12 | – | inactive: -15.5%
COc1ccc(-n2cnc3ccccc32)cc1 | inconclusive: 11.2 µM [inhibitor, single point] | –
CCOC(=O)c1[nH]c(C)c(C(=O)c2cc(F)ccc2F)c1C | inconclusive: 0.316 µM [inhibitor, full curve, poor fit] | –
CCCNC1=C(N(C(C)=O)c2cccc(F)c2)C(=O)c2ccccc2C1=O | inconclusive: 11.2 µM [inhibitor, partial curve] | –
CC[n+]1c(-c2ccccc2)csc1Nc1c(C)n(C)n(-c2ccccc2)c1=O | – | inactive: 2.63%
Cc1ccc(N=c2ssnc2Cl)cc1 | inconclusive: 31.6 µM [inhibitor, single point] | –
O=C(COCc1cc(-c2ccc3c(c2)OCO3)on1)Nc1cc(C(F)(F)F)ccc1Cl | – | inactive: -6.65%
Cc1snc(S(=O)(=O)/C(C#N)=N/Nc2ccc(C(F)(F)F)cc2)c1C#N | inconclusive: 28.2 µM [inhibitor, single point] | –

SMILES | Potency | activity change, negative = inhibition
COc1ccc(-c2c(C#Cc3ccsc3)c3cc(-c4ccc5c(c4)OCCO5)ccc3n2C)cc1 | inconclusive: 28.2 µM [inhibitor, partial curve, poor fit] | –
CC(Oc1ccc(F)cc1)C(=O)Nc1nc(-c2ccccn2)cs1 (stereo not drawn) | inconclusive: 10 µM [inhibitor, single point] | –
Cc1cccc(C2c3[nH]c4ccccc4c3CCN2C(=O)c2noc3c2CCCC3)n1 (stereo not drawn) | – | inactive: -9.08%
CCC(C)C1NC(=S)N(Cc2ccccc2)C1=O (stereo not drawn) | – | inactive: 68.8%
O=C(CCc1ccccc1O)NC1CCCc2ccccc21 (stereo not drawn) | inconclusive: 28.2 µM [inhibitor, single point] | –
O=C(NC(=S)N1CCCC1)c1ccc(Cl)cc1Cl | inconclusive: 3.55 µM [inhibitor, partial curve, poor fit] | –
CSc1cccc(NC(=S)N(CCCN2CCCC(C)C2)Cc2cccs2)c1 (stereo not drawn) | inconclusive: 28.2 µM [inhibitor, single point] | –
O=C(Nc1ccccc1F)n1ncc2cc(Cl)ccc21 | – | inactive: 2.03%
CC(=O)N(C1=C(Cl)C(=O)c2ccccc2C1=O)c1ccc(C(=O)O)cc1 | inconclusive: 28.2 µM [inhibitor, single point] | –
CSC(=S)N/N=C/c1c[nH]c2ccccc12 | inconclusive: 1.12 µM [inhibitor, full curve, poor fit] | –
Cc1ccc(Cn2ncc3c(NN)ncnc32)cc1 | – | inconclusive: -40.4% [inhibitor]
Cc1nc2ccc(C(=O)OCc3ccccc3Br)cc2nc1C | inconclusive: 10 µM [inhibitor, single point] | –
CCN(CC)CCN(C(=O)c1ccc2c(c1)CCCC2)c1nc2ccc(OC)cc2s1 | inconclusive: 22.4 µM [inhibitor, single point] | –
CC(=O)c1ccc(CCCCc2ccc(C(C)=O)cc2)cc1 | inconclusive: 20 µM [inhibitor, single point] | –
Cc1cccc(NS(=O)(=O)c2ccc(C)c(C(=O)NCC(c3cccs3)N(C)C)c2)c1 (stereo not drawn) | – | inactive: 19.6%
COc1cc2c(cc1OC)C(c1cc3cc(C)ccc3[nH]c1=O)N(C(=O)c1ccco1)CC2 (stereo not drawn) | – | inactive: 3.35%
CCOc1ccc2nc(N3CCCC(C(=O)NCCCN4CC(C)CC(C)C4)C3)sc2c1 (stereo not drawn) | inconclusive: 10 µM [inhibitor, partial curve, poor fit] | –
CN1CCN(c2nc(Nc3ccc(F)cc3)nc(Nc3ccc(F)cc3)n2)CC1 | inconclusive: 28.2 µM [inhibitor, single point] | –
COC(=O)CN1C(C)=Nc2ccc(C)cc2C1c1ccccc1 (stereo not drawn) | inconclusive: 0.501 µM [inhibitor, full curve, poor fit] | –
O=C(N/N=C/c1ccccn1)c1cc(-c2ccncc2)nc2ccccc12 | inconclusive: 11.2 µM [inhibitor, partial curve, poor fit] | –
Cc1ccc(C)c(N2N=C(C(=O)Nc3ccc(N4CCOCC4)cc3)CCC2=O)c1 | – | inactive: -6.74%
COC(=O)C1=C(O)/C(=C\c2ccc(CNS(=O)(=O)c3ccc(Cl)cc3)o2)N=C1C | – | inactive: -6.54%

From PubChem BioAssay AID624418 (National Center for Advancing Translational Sciences (NCATS), 2012)
